Read counts are not given, so values of variants with three or more changes are uncertain.
B1: CPEB3 Ribozyme (parent)
chain: UAACAGGGGGCCACAGCAGAAGCGUUCACGUCGCAGCCCCUGUCAGAUUCUGGUGAAUCUGCGAAUUCUGCUGUAUAUCUC

Variants of: B1
Test: self-cleavage, relative activity (ratio to wild type); higher = more cleavage; in vitro, sequencing
In short: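 CPEB3 self-cleaving ribozyme mutant libraries were made by rounds of error-prone PCR, barcoded, and transcribed in vitro with T7 RNA polymerase for 5 hours at 37°C. Cleavage occurred during transcription and a 15 min DNase I step before EDTA stop. RNAs were reverse transcribed with template switching and Illumina-sequenced, with DNA sequencing mapping barcodes to variants. Relative activity is the variant's cleaved/total read fraction divided by wild type's (minimum 5 reads), averaged across three batches.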

Variant	self-cleavage
A2U C27A A65U U69C A75U	0.12
A2U C29A A35U G52A A56G A65C U66C	0.06
A2U C29U A35U U54C	0.3
A2U C32A A56G U60C A64G U78C	0.06
A2U C32U A35C U54C	0.11
A2U C34A A47G U60C	0.17
A2U C34G U49C U72C	0.06
A2U C37U C40G C79A	0.06
A2U C38U A57G U74A U80C	0.33
A2U C39G C40G U41C	0.26
A2U C39G U43C U60C	0.28
A2U C40G U41C U72C A75G	0.09
A2U C50A U66C	0.23
A2U G6A A35G U54A A57G	0.49
A2U G6A U41A A56G A75U	0.15
A2U G6U A28U A45U C62G U72C	0.06
A2U G6U A35U U48C U60C	0.33
A2U G6U U26C U54C A77U	0.3
A2U G7A A56G	0.42
A2U G7A U51C	0.41
A2U G7U A28C U31C A47G C62U U66C	0.09
A2U G7U A35G	0.38
A2U G7U U43C U69C U78A	0.05
A2U G8A U41G G70A	0.07

Variant	self-cleavage
A2U G8C C11A A35G U51C C62U U72C	0.13
A2U G8U A15U U25C	0.25
A2U G8U A15U U25C U80C	0.32
A2U G9A A13U A18U C38U A56U	0.11
A2U G9A A15U A35G U41C	1.05
A2U G9A A18U A56U U60C	0.05
A2U G9A U51C	0.44
A2U G9C A13G U66C	0.06
A2U G9U U43A A57U	0.38
A2U G10A U51C G55C U67C G70C	0.11
A2U G19U A28G C32A A47G U74C	0.06
A2U G19U G33A A35G U72G A77U	0.05
A2U G24A C50A	0.07
A2U G30A U41A U66C	0.22
A2U G33A U43A U74A	0.42
A2U G33C U41C A57G U78C	0.16
A2U U25A A35G	0.35
A2U U25C A77G U78A	0.26
A2U U25C U43A	0.32
A2U U25C U60C	0.13
A2U U25C U66C U67C	0.28
A2U U26A A28G U69C	0.22
A2U U26A A28U A35U G46A A65G	0.12
A2U U26A A35U U41C C59A U60C	0.06

Variant	self-cleavage
A2U U26A U54C	0.62
A2U U26C A35U G46A U67C U74C U76C	0.05
A2U U26C U41C A56G	0.26
A2U U26G U41C	0.38
A2U U31A A47G U74C A75U	1.05
A2U U31A U49C	0.2
A2U U41A A45G U49C	0.09
A2U U41C A47U	0.8
A2U U41C U60C A77U	0.52
A2U U41C U80C	1.03
A2U U41G U48C G70A	0.1
A2U U43A A56U U72A	0.22
A2U U43A U72C	1.08
A2U U48C U80A	0.46
A2U U49A A56G	0.51
A2U U51A U54C A64G U76C	0.97
A2U U51C U54A	1.11
A2U U54A A77U	1.06
A2U U54G U69A U72C	0.47
A2U U60C U74A	0.96
A2U U60C U74C	0.55
A3C A5C A15U A21G U51A	0.86
A3C A5G G22A A47G A56G U80C	0.6
A3C A5G U49C U74A	0.59

Variant	self-cleavage
A3C A5U U51G	0.5
A3C A13G A15G U49A	0.36
A3C A13G A20U C40U A57G	0.1
A3C A13G A21G C29U G30C A35G U58C	0.54
A3C A13G U25A	0.47
A3C A13G U26C	0.47
A3C A13U A64U G70A C71U A75G	0.14
A3C A15G A45G U69A	0.5
A3C A15G A47U U48C A57G U72G	0.25
A3C A15G U25A A64G A75G U80C	0.11
A3C A15G U43A C59A U67C U80A	0.13
A3C A15U U25C U74A	0.54
A3C A18G U80C	1.03
A3C A18U U41C	0.81
A3C A20G A21G C32A A64G	0.02
A3C A20G U31G U58A	0.28
A3C A20G U41A A47G A77G	0.43
A3C A20G U66C U76G	0.42
A3C A20U A47G U58C U66C	0.46
A3C A20U U60C U72A A77G U78C	0.21
A3C A28C U31G U78C	0.26
A3C A28G A35U U69C A75G	0.17
A3C A28G A64G U67C C68A	0.08
A3C A28G G33U A45G U54A	0.36

Variant	self-cleavage
A3C A28G G42A A57G C68G U69C	0.37
A3C A28G U51A	0.78
A3C A35G U43A U54C G73C U80C	1.28
A3C A35U A45G U72C	0.74
A3C C4G A21C U78C	0.14
A3C C11A C27U U54C U58C U67A	0.19
A3C C12U U31A U48A U49A	0.3
A3C C14U U60C	0.92
A3C C17U C39A	0.06
A3C C23G A35G U67C A77G U80C	0.07
A3C C23U A35U U48C U54C	0.05
A3C C23U A45U	0.18
A3C C34U C39U U51C U74A A77U	0.62
A3C C37G A45C U48C	0.08
A3C C50A U74C	1.11
A3C C62U A64G	0.28
A3C G6A C62U	0.05
A3C G6C U26C U69C	0.12
A3C G6C U43C U51A U54A	0.14
A3C G7A G9U C38U U49C U78C	0.05
A3C G7C U54C G63U	0.12
A3C G7U A13G A18G A28G U54C U80C	0.17
A3C G7U A21U C50U U60C A64U	0.19
A3C G8A A18G A47G G63A A64G U72C	0.04

Variant	self-cleavage
A3C G8A G9U U25C U41C U67C U74C	0.05
A3C G8A G10A A15G A21U U48C A65U	0.07
A3C G8A U54C	0.5
A3C G8C G10C U26C A57G U69C	0.06
A3C G9A A18U A20G A21G A35G U78C	0.57
A3C G9C A28U A64U U67C U72A	0.08
A3C G10A U26C U31C C44U U78C	0.07
A3C G10A U31C U72A	0.04
A3C G10A U43C A56G U78A U80C	0.08
A3C G10U A15U	0.08
A3C G16C C62A	0.41
A3C G16U A45G A75G	0.28
A3C G19A A20G	0.59
A3C G19A U48C U80A	0.44
A3C G24A C38G A56G	0.09
A3C G36A C44A U54C	0.12
A3C U25A A56G A57G	0.11
A3C U25C A35U	0.54
A3C U25C A45G U67A	0.51
A3C U25C G63A U78C	0.14
A3C U26C A35U U49G U67C	0.05
A3C U31C A35G U49A U51C G55A	1.23
A3C U31C G63A	0.99
A3C U41A A45G A47U A56G U78A	0.16

Variant	self-cleavage
A3C U43C U60C	0.04
A3C U51A G55U U58C A64G	0.23
A3C U54A A57G U67A	0.79
A3C U54C A64U A65C A75U	0.18
A3C U67G U76A	0.71
A3C U69A U76C	1.09
A3G A5C A15G A64G	0.74
A3G A5C C11G A56G U69A U76A	0.41
A3G A5C U26G A28U C34U A47G	0.05
A3G A5G A13U A15C A56U A65G	0.26
A3G A5G A13U U41C A65G A75G	0.38
A3G A5G A15G A35G	0.76
A3G A5G A15U U49C A75U U80A	0.12
A3G A5G A18G A35G U72C A77U U80A	1.02
A3G A5G A20G U49A A64G U66C	0.12
A3G A5G A21C G33U A47G U66C	0.15
A3G A5G A21G U26C U48C	0.29
A3G A5G A28C C32U	0.11
A3G A5G A28G A35G U72C	0.86
A3G A5G A28U U31A A47C U60C	0.24
A3G A5G A35G U67C U69C	0.34
A3G A5G A35U A47G	0.21
A3G A5G A45G U72C	0.41
